# Experimental data as given in the supplement of paper PMC4967469.
# The IC50 comes from the fitted curve, where viability falls to half of the control; a limit (>, <) means that the fit lies beyond the doses tested. For AUC the same curve is integrated over the 256-fold range of doses and scaled to a fraction; the more sensitive the line, the further below 1. A top dose marked as inferred comes from the curve model; the source does not state it.
# Compound: O=C1NC(=O)/C(=C\c2ccc3nccnc3c2)S1 [AS605240]
# Test: Viability of human cancer cell lines after 72 h of drug (GDSC screen)
# Details: top dose inferred
# Method: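 Human cancer cell lines in 384-well plates, medium with 10% serum, drug for 72 h over a 256-fold dose range (nine 2-fold or five 4-fold steps up to the top dose). Adherent lines were fixed and stained with the nucleic acid dye Syto60, suspension lines read with resazurin; signal relative to control wells, capped at 0 and 100%. One two-parameter sigmoid per drug and line, fitted in a mixed model over all curves with the slope shared within a line.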
Cell Line,AUC,IC50 [µM]
"WM278 (melanoma, adherent, top dose 20 µM)",0.793,10.5
"Hep 3B2_1-7 (liver, adherent, top dose 20 µM)",0.97,> 20
"NCI-H2023 (lung adenocarcinoma, adherent, top dose 20 µM)",0.953,> 20
"TGBC11TKB (stomach, adherent, top dose 20 µM)",0.974,> 20
"HCC-44 (lung adenocarcinoma, adherent, top dose 20 µM)",0.845,14
"MOLT-13 (T-cell lymphoblastic leukaemia, suspension, top dose 20 µM)",0.714,4.6
"H3118 (head and neck, adherent, top dose 20 µM)",0.662,3.7
"KG-1 (acute myeloid leukaemia, suspension, top dose 20 µM)",0.755,6.12
"D-542MG (glioma, adherent, top dose 20 µM)",0.906,> 20
"COLO-205 (large intestine, suspension, top dose 20 µM)",0.414,0.731
"H9 (lymphoid neoplasm, suspension, top dose 20 µM)",0.909,19.2
"SW954 (urogenital system, adherent, top dose 20 µM)",0.629,2.86
"OVCAR-8 (ovary, adherent, top dose 20 µM)",0.894,19.6
"THP-1 (acute myeloid leukaemia, suspension, top dose 20 µM)",0.589,2.14
"HEC-1 (endometrium, adherent, top dose 20 µM)",0.949,> 20
"ML-1 (thyroid, adherent, top dose 20 µM)",0.972,> 20
"BB65-RCC (kidney, adherent, top dose 20 µM)",0.969,> 20
"PCI-15A (head and neck, adherent, top dose 20 µM)",0.899,> 20
"NCI-H2081 (small cell lung carcinoma, suspension, top dose 20 µM)",0.927,> 20
"NB7 (neuroblastoma, adherent, top dose 20 µM)",0.952,> 20
"LS-180 (large intestine, adherent, top dose 20 µM)",0.884,> 20

Cell Line,AUC,IC50 [µM]
"MHH-ES-1 (Ewing sarcoma, adherent, top dose 20 µM)",0.788,8.66
"JHU-011 (head and neck, adherent, top dose 20 µM)",0.756,6.74
"SK-MEL-1 (melanoma, suspension, top dose 20 µM)",0.545,1.63
"HAL-01 (lymphoblastic leukaemia, suspension, top dose 20 µM)",0.451,0.937
"PCI-4B (head and neck, adherent, top dose 20 µM)",0.928,> 20
"MDA-MB-157 (breast, adherent, top dose 20 µM)",0.87,19.5
"YH-13 (glioma, adherent, top dose 20 µM)",0.92,> 20
"OV-17R (ovary, adherent, top dose 20 µM)",0.974,> 20
"NCI-H211 (small cell lung carcinoma, adherent, top dose 20 µM)",0.937,> 20
"201T (lung adenocarcinoma, adherent, top dose 20 µM)",0.918,> 20
"A673 (rhabdomyosarcoma, adherent, top dose 20 µM)",0.859,14
"COR-L279 (small cell lung carcinoma, suspension, top dose 20 µM)",0.975,> 20
"NCI-H1563 (lung adenocarcinoma, adherent, top dose 20 µM)",0.788,10.7
"NCI-H747 (large intestine, adherent, top dose 20 µM)",0.555,1.83
"LU-135 (small cell lung carcinoma, suspension, top dose 20 µM)",0.989,> 20
"U-698-M (B-cell leukaemia, suspension, top dose 20 µM)",0.938,> 20
"SNU-398 (liver, adherent, top dose 20 µM)",0.846,15.4
"RCC-JW (kidney, adherent, top dose 20 µM)",0.581,2.1
"CA46 (Burkitt lymphoma, suspension, top dose 20 µM)",0.854,17.6
"KY821 (leukaemia, suspension, top dose 20 µM)",0.969,> 20
